# The campaign covered roughly 91,000 compounds. About 130 (0.14%) were called active. This list was built around the results that the source calls inconclusive (neither active nor inactive); the mix of calls is not that of the screen. Calls follow the shape of the dose curve; as a rule, active = well fitted inhibition curve with a large enough effect; inconclusive = small, poorly fitted or top-dose-only effect; inactive = flat fitted curve, though single readings scatter. Potencies beside an inconclusive call are fits to weak or partial responses and may not hold up.
# System: Uracil-DNA glycosylase
# Assay: Primary qHTS assay for inhibitors of Activation Induced Cytidine Deaminase (AID): UDG Counterscreen signal; also: nearly all actives have a fitted effect of over 65% in size
# Details: FRET deamination/UDG coupled assay, UDG read, 4 h; activity change, negative = inhibition: at 115 µM (top of the series)
# % is scaled to controls: 0 for no effect and ±100 for the full control effect; potency is read from the fitted curve at half-maximal effect; tags tell the direction and shape of the fitted curve.
Structure (SMILES),Potency,"activity change, negative = inhibition"
CCc1cccc(C)c1NS(=O)(=O)c1ccc(-c2cc(C)no2)s1,"inconclusive: 89.1 µM [inhibitor, single point]",–
COc1cccc(NC(=O)Cn2c(=O)n(Cc3ccco3)c(=O)c3cc(OC)c(OC)cc32)c1,–,inactive: -9.16%
CSc1ccc(CNC(=O)Cn2ccc3cc(S(=O)(=O)N4CCCC4)ccc32)cc1,"inconclusive: 39.8 µM [inhibitor, single point]",–
CN(C)c1ccc(C(=O)NCc2ccc3c(c2)CCN3C(=O)c2ccccc2)cc1,active: 79.4 µM,–
CC1CCN(c2nc(-c3ccc(Br)cc3)nc3ccccc23)CC1,"inconclusive: 89.1 µM [inhibitor, single point]",–
Cc1ccc(-c2csc(=Nc3ccc(F)cc3)n2Cc2ccc3c(c2)OCO3)cc1C,"inconclusive: 79.4 µM [inhibitor, single point]",–
CCc1noc(-c2ccc(N3CCCCC3C)c([N+](=O)[O-])c2)n1 (centres undefined),"inconclusive: 50.1 µM [inhibitor, partial curve, poor fit]",–
COc1ccc(OC)c(NC(=O)CSc2nc3ccccc3nc2N2CCCCC2)c1,"inconclusive: 79.4 µM [inhibitor, single point]",–
CCc1nonc1NC(=O)c1oc2ccccc2c1C,–,inactive: 3.86%
COc1ccc2c(C)c(CCC(=O)Nc3ccc(Br)c(C)c3)c(=O)oc2c1,–,inactive: 2.4%
CCc1ccc(Nc2ncnc3c2cnn3-c2cc(Cl)ccc2C)cc1,"inconclusive: 89.1 µM [inhibitor, single point]",–
O=C(C1CC1)N(Cc1ccc2c(c1)CN(S(=O)(=O)c1cc(F)ccc1F)CCO2)c1ccccc1,active: 89.1 µM,–
Fc1ccc(C(=Nc2ccccc2)c2ccc(F)cc2)cc1,–,inactive: -5.89%
Cc1cccc(-n2ncc3c(NC4CCCC4)ncnc32)c1,"inconclusive: 89.1 µM [inhibitor, single point]",–
CCC(CC)C(=O)Nc1cccc(-c2nc3ccccc3s2)c1,"inconclusive: 89.1 µM [inhibitor, single point]",–
Cc1ccccc1-c1nc2cc(NC(=O)COc3ccc(F)cc3)ccc2o1,"inconclusive: 89.1 µM [inhibitor, partial curve, poor fit]",–
Cc1ccccc1S(=O)(=O)Cc1ccc(C(=O)N2CCN(c3cccc(Cl)c3)CC2)o1,"inconclusive: 89.1 µM [inhibitor, partial curve, poor fit]",–
COc1ccc(-c2c(C#N)c(SCC(=O)Nc3ccccc3C)nc(C)c2C(=O)Nc2ccc(Cl)cc2)cc1,"inconclusive: 89.1 µM [inhibitor, single point]",–
COC(=O)c1c(NC(=O)CCCOc2cccc(C)c2)sc2c1CCC2,"inconclusive: 89.1 µM [inhibitor, partial curve, poor fit]",–
CCCC(=O)Nc1nnc(S(=O)(=O)N(C)Cc2ccc(Cl)cc2)s1,"inconclusive: 89.1 µM [inhibitor, single point]",–
Cc1cccc(-c2nn3c(=O)cc(CN4CCN(C(=O)/C=C/c5ccccc5)CC4)nc3s2)c1,"inconclusive: 89.1 µM [inhibitor, single point]",–
Cc1ccc(NC(=O)/C(C#N)=C/c2ccc(-c3ccc(Cl)c(C(=O)O)c3)o2)cc1C,"inconclusive: 89.1 µM [inhibitor, single point]",–
COc1ccccc1NC(=O)Cn1nc(-c2ccc(C)cc2)c2c(c1=O)CCCC2,–,inactive: 5.41%

Structure (SMILES),Potency,"activity change, negative = inhibition"
CC(C)NC(=O)CN(C)CC(O)COc1ccc(Cl)cc1 (centres undefined),"inconclusive: 89.1 µM [inhibitor, single point]",–
N#C/C(=C/c1ccc(O)cc1)c1nc(C2CC2)cs1,–,inactive: 5.44%
CCCn1nc(C(=O)OCC(N)=O)c2ccccc2c1=O,–,inactive: 2.78%
CCCN1CCc2nc(N)c(C#N)c(-c3cc(OC)c(OC)c(OC)c3)c2C1,"inconclusive: 70.8 µM [inhibitor, partial curve, poor fit]",–
CCOc1ccc(-c2nnc(SCC(=O)c3ccc(Br)cc3)n2-c2ccccc2)cc1,"inconclusive: 31.6 µM [inhibitor, partial curve, poor fit]",–
Cc1ccc(C2=NC(c3ccccc3)=Nc3ccc(Cl)cc3N2)cc1,"inconclusive: 89.1 µM [inhibitor, partial curve, poor fit]",–
Cc1cc(C)c2c(=O)cc(C(=O)NCc3ccc(S(N)(=O)=O)cc3)oc2c1,"inconclusive: 28.2 µM [inhibitor, partial curve, poor fit]",–
CCc1cccc(C)c1NS(=O)(=O)c1ccc(-n2cccn2)cc1,–,inactive: 0.144%
Cc1ccc(S(=O)(=O)N2CCN(CCNC(=O)COc3ccccc3)CC2)cc1,–,inactive: -4.58%
CC(C)c1ccc(OCC(=O)Nc2cc(-c3nc4ncccc4o3)ccc2Cl)cc1,–,inactive: 0.752%
CC1(c2ccccc2)CC(C)(C)N(C(=O)c2ccccc2Cl)c2ccccc21 (centres undefined),"inconclusive: 100 µM [inhibitor, partial curve, poor fit]",–
CCOc1ccccc1N(CC)C(=O)c1cc2ccc3cccnc3c2[nH]1,"inconclusive: 89.1 µM [inhibitor, single point]",–
Cc1nn(-c2nc3c(c(=O)n(Cc4c(F)cccc4Cl)c(=O)n3C)n2C)c(C)c1C,–,inactive: -7.79%
COc1cc2c(cc1OC)C(COc1ccc(C(C)C)cc1)N(C(=O)COc1ccccc1)CC2 (centres undefined),"inconclusive: 17.8 µM [inhibitor, partial curve, poor fit]",–
CCOCCCNC(=S)NC1CC1,–,inactive: 7.21%
COc1cccc(C2Nc3ccccc3-c3nnc(SCc4ccccc4)nc3O2)c1OC (centres undefined),"inconclusive: 89.1 µM [inhibitor, partial curve, poor fit]",–
COc1ccc(NC(=O)c2ccc(S(=O)(=O)NCC3CCCO3)cc2)cc1 (centres undefined),–,inactive: -3.56%
Cc1cc2c(s1)CCc1cc(C(=O)NC3CCCCC3)sc1-2,–,inactive: -14%
COCCNc1ccc(-c2nc(-c3cccc(C)c3)no2)cc1[N+](=O)[O-],"inconclusive: 79.4 µM [inhibitor, single point]",–
CN1C(=O)c2ccccc2Sc2ccc(NC(=O)COc3ccc(Cl)cc3)cc21,"inconclusive: 56.2 µM [inhibitor, partial curve, poor fit]",–
CCOC(=O)c1c(NC(=O)c2nc(SC)ncc2Cl)sc(C)c1C,"inconclusive: 89.1 µM [inhibitor, single point]",–
CCOC(=O)c1scc(-c2ccc(C)cc2)c1S(=O)(=O)Nc1ccc(F)c(F)c1,"inconclusive: 79.4 µM [inhibitor, partial curve]",–
COc1cc2c(cc1OC)C(c1ccc(F)cc1)N(c1ccc(F)cc1)C(=O)C2 (centres undefined),"inconclusive: 100 µM [inhibitor, single point]",–

Structure (SMILES),Potency,"activity change, negative = inhibition"
COc1ccc(-c2c(C(=O)O)sc3c2NC(=O)CC32C(=O)N(C)c3c(C)cccc32)cc1 (centres undefined),–,inactive: -8.07%
CCCCCCCCc1ccc(-c2ccc(C(=O)O)cc2)cc1,inactive,–
CCc1ccc(C(=O)COC(=O)/C(=C\c2ccccc2)NC(C)=O)cc1,–,inactive: -10.1%
CCOc1cc(/C=C/c2nc3ccccc3s2)ccc1O,–,inactive: -2.2%
COc1cccc(-c2nn(C)c3sc(C(=O)NCCc4cccc(C)c4)cc23)c1,"inconclusive: 89.1 µM [inhibitor, partial curve, poor fit]",–
CCOc1ccc(-n2c(C)nc3cc(C(=O)NCc4ccc(C)cc4)ccc32)cc1,–,inactive: -14.8%
CCOc1ccc(-c2nnc(SCC(=O)Oc3ccccc3)o2)cc1,"inconclusive: 89.1 µM [inhibitor, single point]",–
CCOCCCNC(=O)Cn1cc2c(n1)-c1c(oc(C(=O)N3CCCC3)c1C)CC2,"inconclusive: 28.2 µM [inhibitor, full curve, poor fit]",–
Cc1c(CC(=O)Nc2ccc(C(C)C)cc2)c(=O)oc2cc(O)ccc12,–,inactive: -1.89%
COc1ccc(-n2c(SCc3nc(-c4ccc(Cl)cc4)no3)nnc2-c2ccncc2)cc1,"inconclusive: 15.8 µM [inhibitor, full curve, poor fit]",–
Cc1ccc(C)c(Cn2c(SCC(=O)N(C)Cc3ccccc3)nc3ccccc32)c1,"inconclusive: 79.4 µM [inhibitor, partial curve]",–
CCc1ccccc1NC(=O)C(=O)NCC(c1cccnc1)N1CCc2ccccc21 (centres undefined),"inconclusive: 70.8 µM [inhibitor, single point]",–
CCc1cccc(NC(c2nnc(-c3ccccc3)o2)c2ccc(F)cc2Cl)c1 (centres undefined),active: 79.4 µM,–
Cc1ccc2cccc(NC(=O)C(C)Oc3ccc(C)c(C)c3)c2n1 (centres undefined),"inconclusive: 79.4 µM [inhibitor, partial curve, poor fit]",–
O=C(Nc1cc(Cl)ccc1Cl)C1(c2cccs2)CCOCC1,"inconclusive: 100 µM [inhibitor, single point]",–
O=C(CC(c1ccccc1)S(=O)(=O)c1ccccc1)c1ccc(F)cc1 (centres undefined),–,inactive: 3.95%
Clc1cccc(CSc2cccc3cccnc23)c1,–,inactive: -2.81%
COc1ccc(NC(=O)CSc2nnc3scc(-c4ccc(Cl)cc4)n23)cc1,"inconclusive: 14.1 µM [inhibitor, single point]",–
CCn1nc(C(=O)Nc2ccc3nc(SC)sc3c2)c2ccccc2c1=O,–,inactive: 1.3%
Cc1ccccc1NC(=O)Nc1ccc2nc(N3CCN(C)CC3)cc(C)c2c1,"inconclusive: 89.1 µM [inhibitor, single point]",–
Clc1ccccc1-c1nc(N2CCCCC2)c2ccccc2n1,–,inactive: -4.54%
O=C(NCCc1c[nH]c2ccccc12)c1ccc(Cl)cc1,"inconclusive: 89.1 µM [inhibitor, single point]",–
CCC(=O)OCc1cnc(C)c2oc(=O)c(C(=O)Nc3ccc(CC)cc3)cc12,"inconclusive: 89.1 µM [inhibitor, single point]",–

# Reference: PubChem BioAssay AID1347430 (National Center for Advancing Translational Sciences (NCATS), 2020)
